# Measured values reported in PubChem BioAssay AID463173 (ICCB-Longwood Screening Facility, Harvard Medical School, 2010).
# About 1,700 (3.3%) of roughly 52,000 compounds were called active. Cut-off read from the data, not from the text of the source: active = survival mostly below about 52% (no sharp cut-off); inactive = mostly above about 56%. The list shows a part of the results.
# System: Wild type
# Experiment: growth inhibition of S. aureus wild type versus tarO mutant, primary screen, teichoic acid synthesis inhibitors, RN4220, OD600 (AID 463173)
# Details: S. aureus RN4220 wild type/DeltatarO growth, OD600, 18 h, hits give low values, screened at 18.75 µg/mL (by protocol)
row,SMILES,survival
1,COC(=O)c1cccc(Nc2c(-c3ccc(O)cc3)nc3nc[nH]n23)c1,inactive: 148%
2,COc1ccc(N2CCN(C(=O)c3cn(C4CCCCC4)c(=O)c4c3c3ccccc3n4C)CC2)cc1,inactive: 75%
3,NC(=O)CSc1nc2ccccc2c(=O)n1Cc1ccco1,inactive: 111%
4,COC(=O)CSCc1nc(-c2ccc(C(=O)OC)cc2)oc1C,inactive: 80%
5,O=C(CCNS(=O)(=O)c1cccc2nonc12)Nc1ccc(F)cc1,inactive: 63%
6,O=C(Nc1ccc(F)cc1F)c1cc2ccc3cccnc3c2[nH]1,inactive: 65%
7,Cc1cccc(C)c1NC(=O)N1CCC(C(N)=O)(N2CCCCC2)CC1,inactive: 106%
8,Cc1ccccc1Nc1cc(C(=O)NC2CCC(C)CC2)c2ccccc2n1 (stereo not given),inactive: 92%
9,CCOC(=O)c1ccc(NC(=O)c2c(NCc3cccc(OC)c3)sc3c2CCC3)cc1,inactive: 68%
10,CN1CCN(Cc2nnnn2CC2CCCO2)CC1 (stereo not given),inactive: 106%
11,O=C(CCCOc1ccccc1)Nc1nccs1,inactive: 98%
12,CC(C)c1ccc(C(=O)Nc2ccc(-c3nc4ccccc4s3)c(Cl)c2)cc1,inactive: 141%
13,COc1cccc(-n2c(-c3ccco3)nc3c(cnn3-c3ccccc3C)c2=O)c1,inactive: 94%
14,COc1cccc(C(=O)NCC(c2ccc(N(C)C)cc2)N2CCc3ccccc32)c1OC (stereo not given),inactive: 74%
15,COc1ccc2oc(-c3ccc(C)c(NC(=O)c4sc5ccccc5c4Cl)c3)nc2c1,inactive: 65%
16,Cn1cc(S(=O)(=O)N2CCCCCC2)cc1C(=O)Nc1ccccc1F,inactive: 78%
17,COc1ccc(-c2nc(Cn3c(SCc4cccc(F)c4)nc4cccnc43)c(C)o2)cc1,inactive: 71%
18,Cc1cccc(OCC(=O)Nc2c(C(=O)N3CCN(c4ccccc4)CC3)oc3ccccc23)c1,inactive: 86%
19,COc1ccc(N2CCN(c3oc(-c4ccccc4C)nc3S(=O)(=O)c3ccccc3)CC2)cc1,inactive: 116%
20,COc1cc(NC(=O)Cn2nc(Cc3cccnc3)c3ccccc3c2=O)cc(OC)c1OC,inactive: 67%
21,CCc1nc2ccccc2n1CCCCOc1ccc(Cl)cc1,active: 2%
22,CCCCN(CCCC)S(=O)(=O)c1ccc(C(=O)Nc2sc3c(c2C(N)=O)CCN(CC)C3)cc1,inactive: 68%
23,CCOc1ccccc1CNC(=O)CCCn1nc(C)c2sc3ccccc3c2c1=O,inactive: 88%

row,SMILES,survival
1,Cc1cccc(CSc2nc3ccncc3n2Cc2ccc(C(=O)O)cc2)c1,inactive: 82%
2,O=C(Nc1ccc(-c2cn3cccnc3n2)cc1)c1ccccc1F,inactive: 87%
3,Cc1ccc(OCc2ccc(-c3nc(C#N)c(N4CCN(c5cccc(Cl)c5)CC4)o3)o2)cc1,inactive: 94%
4,O=C(CSc1nnnn1Cc1ccccc1)Nc1ccccc1,inactive: 114%
5,COc1cc(NC(=O)Cn2nc(C(F)(F)F)c3c2CCCC3)cc(OC)c1OC,inactive: 93%
6,COc1ccccc1NC(=O)Cn1c(=O)n(CCc2ccccc2)c(=O)c2sc3ccccc3c21,inactive: 76%
7,CCC1CN(C(=O)N2CCC(C(=O)NCCCc3ccccc3)CC2)c2ccccc2O1 (stereo not given),inactive: 101%
8,COc1ccc(NC(=O)c2cc3ccc(O)cc3o/c2=N\O)cc1,inactive: 107%
9,Cc1ccc(S(=O)(=O)N(CC(=O)O)CC(=O)O)cc1,inactive: 105%
10,Cc1cc(C)cc(NS(=O)(=O)N(C)C)c1,inactive: 113%
11,CCN1CCN(c2cc(C)c3cc(NC(=O)c4cc(Br)ccc4Cl)ccc3n2)CC1,inactive: 57%
12,CCCC12CN3CC(C)(CN(C1)C3c1cn(CC)c3ccccc13)C2=O (stereo not given),inactive: 83%
13,O=C(NCc1ccccc1Cl)c1ccc2nc(Cc3ccccc3)oc2c1,inactive: 47%
14,CCC(=O)N1c2ccccc2CC1C(=O)NCCN1CCN(c2cccc(Cl)c2)CC1 (stereo not given),inactive: 85%
15,CC(=O)N1CCCc2cc(S(=O)(=O)N3CCC(C(=O)NCc4ccccc4Cl)CC3)ccc21,inactive: 121%
16,COCCCNC(=O)CSc1nc(-c2ccc(OC)cc2)[nH]c1-c1ccc(OC)cc1,inactive: 87%
17,CN(CC(=O)Nc1ccc2c(c1)OCO2)Cc1ccccc1,inactive: 110%
18,CC(C)n1nnnc1SCC(=O)OC1CCCCC1,inactive: 127%
19,CCOC(=O)c1c(C)[nH]c(CCC(=O)Nc2ccccc2OCC)c1C,inactive: 83%
20,COc1ccc2oc(=O)cc(CN3CCN(c4ccccc4OC)CC3)c2c1,inactive: 84%
21,Cc1nn(CCC(=O)N2CCN(c3ccccc3F)CC2)c(C)c1S(=O)(=O)N1CCCC1,inactive: 120%
22,COc1ccc(C(=O)Nc2cc3cc(Cl)ccc3oc2=O)cc1OC,inactive: 81%
23,COc1ccc(CNC(=O)c2ccc(CS(=O)(=O)c3ccc(OC)cc3)o2)cc1,inactive: 87%

row,SMILES,survival
1,CCN(CC)C(=O)c1sc2c(c1C)c(=O)n(-c1ccc(OC)cc1OC)c(=O)n2Cc1cc(C)ccc1C,inactive: 79%
2,COc1cccc(-c2nn(C)c3sc(C(=O)NCc4ccc(C)cc4)cc23)c1,inactive: 70%
3,O=C(O)C1=C(C(=O)Nc2ccc(F)c(Cl)c2)CCCC1,inactive: 112%
4,N#Cc1c(C(F)(F)F)cc(-c2ccco2)nc1SCc1ccncc1,inactive: 106%
5,CN(C)C(=O)CSc1nnc2n1C(C)(C)Cc1ccccc1-2,inactive: 107%
6,CC(=O)Nc1ccccc1OCc1cc(=O)n2c(C)csc2n1,inactive: 88%
7,CCOC(=O)c1cc(S(=O)(=O)NCc2ccc(F)cc2)[nH]n1,inactive: 159%
8,O=S(=O)(c1ccccc1)N1CCCC(c2nc(-c3cccs3)no2)C1 (stereo not given),inactive: 131%
9,Cc1ccc(-c2nc(C)c(CCNC(=O)C(=O)Nc3ccc(C)c(Cl)c3)s2)cc1,inactive: 76%
10,Cc1cc(=O)n2nc(N3CCC(C(=O)NCc4ccccc4F)CC3)sc2n1,inactive: 94%
11,CN1CCN(CCNC(=O)c2cnn(-c3cccc(Cl)c3)c2C2CCN(C(=O)OC(C)(C)C)CC2)CC1,inactive: 70%
12,Cc1ccc(NC(=O)CSc2ncc3c(n2)-c2ccccc2N(C)S3(=O)=O)c(Cl)c1,inactive: 45%
13,COc1ccc(CN(C)c2ccc(-c3nc(C)no3)cc2[N+](=O)[O-])cc1,inactive: 74%
14,CCN(CCCNC(=O)CSc1cc(=O)n(C)c2cc(Cl)ccc12)c1ccccc1,inactive: 75%
15,CCC(CC)C(=O)Nc1cccc(-c2nc3ncccn3c2C)c1,inactive: 98%
16,CCc1ccc(CNC(=O)Cn2nc(C)c3c(C)n(-c4ccc(C)cc4)nc3c2=O)cc1,inactive: 71%
17,COc1ccc(CN2CCCN(CC(=O)Nc3ccc(Br)cc3F)S2(=O)=O)cc1,inactive: 78%
18,Cc1ccc(NCc2cccn2-c2nnc(N3CCC(C(=O)NCc4ccccc4C)CC3)s2)cc1,inactive: 98%
19,Cc1ccc(-n2ncc(C(=O)NCc3ccc4c(c3)OCO4)c2C2CCN(C(=O)OC(C)(C)C)CC2)cc1C,inactive: 82%
20,Cc1c(C(=O)N2CCC(C)CC2)c(S(=O)(=O)Nc2cccc(C#N)c2)c(C)n1C,inactive: 75%
21,Cc1c(Cl)cccc1NC(=O)c1cc(-c2cccs2)on1,inactive: 105%
22,CCOC(=O)c1c(C)[nH]c(C)c1S(=O)(=O)N(C)CC(=O)Nc1cccc(Cl)c1C,inactive: 69%
23,COc1ccc(C(=O)N2CCCCC2CCN2CCOCC2)cc1 (stereo not given),inactive: 87%

row,SMILES,survival
1,Cc1cc(N2CCOCC2)nc(=S)[nH]1,inactive: 98%
2,CC1=C(c2ccc(C)c(C)c2)S(=O)(=O)N=C1N1CCN(c2cccc(C)c2)C(C)C1 (stereo not given),inactive: 71%
3,CCOc1ccc(NC(=O)CC2Nc3cccc4cccc(c34)NC2=O)cc1 (stereo not given),inactive: 63%
4,O=C(c1ccccc1Cl)N1CCCC(c2nc3c(nnn3Cc3ccc(F)cc3F)c(=O)[nH]2)C1 (stereo not given),inactive: 92%
5,CN(C(=O)CSc1nc2ccc(NC(=O)COc3ccc(F)cc3)cc2s1)c1ccccc1,inactive: 79%
6,CCOC(=O)c1ccc(NC(=O)C2=C(C)C(=O)OC23CCCCCC3)cc1,inactive: 88%
7,CC(C)Sc1ncc(Cl)c(C(=O)Nc2nc3ccc(S(C)(=O)=O)cc3s2)n1,inactive: 112%
8,Cc1cc(-c2ccc(S(=O)(=O)Nc3cccc(C(F)(F)F)c3)s2)on1,inactive: 120%
9,COC(=O)C1=NNC2(c3ccc(C)cc3)C(=O)N(c3ccc(C)cc3)C(=O)C12 (stereo not given),inactive: 108%
10,COc1ccc(NC(=O)Cn2c(=O)n(Cc3nc(C)no3)c(=O)c3cc4c(cc32)OCO4)cc1,inactive: 71%
11,Cc1cc(C)c(NC(=O)C2CCN(C(=O)N3CC(C)Oc4ccc(Cl)cc43)CC2)c(C)c1 (stereo not given),inactive: 74%
12,Cc1cc(C)cc(NS(=O)(=O)c2ccc(-c3cc(C)no3)s2)c1,inactive: 69%
13,COc1ccc(NC(=O)c2cc3c(=O)n(Cc4cccs4)ccc3nc2C)c(OC)c1,inactive: 83%
14,Cc1c(C(=O)N(C)C)sc2c1c(=O)n(-c1ccccc1C(F)(F)F)c(=O)n2Cc1ccccc1C#N,inactive: 66%
15,Cc1ccc(-c2nc3cc(Cl)ccc3o2)cc1NC(=O)c1cc2ccccc2o1,inactive: 72%
16,COc1ccc(-c2nsc(NC(=O)COc3ccccc3OC)n2)cc1,inactive: 98%
17,CC(C)Cc1nn2c(=O)cc(COC(=O)c3cccc(NC(=O)c4cccs4)c3)nc2s1,inactive: 72%
18,COc1ccccc1CNC(=O)CCCn1c(=O)c2ccccc2n(CC(=O)Nc2ccc(C)cc2Cl)c1=O,inactive: 101%
19,Cc1ccccc1Cn1c(=O)n(CC2CCC(C(=O)N3CCC(C)CC3)CC2)c(=O)c2sccc21 (stereo not given),inactive: 72%
20,Cn1c(SCC(=O)O)nc2ccccc21,inactive: 118%
21,Cn1c(=O)n(Cc2ccccc2Cl)c(=O)c2c1nc1n2CCN1c1ccccc1,inactive: 85%
